Assay results as given in PubChem BioAssay AID504832 (National Center for Advancing Translational Sciences (NCATS), 2011).
The whole screen tested about 310,000 compounds, of which about 18,000 (5.8%) were called active. The inconclusive results got no clear call from the source; some entries with a clear call stand among them for comparison. Calls come from the whole dose curve; as a rule, active = well fitted inhibition curve with a large enough effect; inconclusive = small, poorly fitted or top-dose-only effect, or another doubt; inactive = no such curve, though single readings can be large or run the other way. No potency is given beside an inconclusive call; the fits are too rough.

Experiment: Primary qHTS for delayed death inhibitors of the malarial parasite plastid, 48 hour incubation
Conditions: P. falciparum luciferase growth in erythrocytes; series mostly up to 28.7 µM; activity change, negative = inhibition: at the top concentration
Procedure, shortened: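 Luminescence readout; reporter = integrated firefly luciferase in P. falciparum. RBC culture at 2% hematocrit, 0.1% parasitemia final, 37 C/5% CO2; decreased signal taken as growth inhibition.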
% is set by controls: 0 for no effect and ±100 for the full control effect; potency is the fitted concentration of half-maximal effect; tags give direction and shape of the fitted curve.

| SMILES | Potency | activity change, negative = inhibition |
| --- | --- | --- |
| CCc1nnc(NS(=O)(=O)c2ccc(NC(=O)COc3ccc(Cl)c(C)c3)cc2)s1 | inconclusive [inhibitor, partial curve, poor fit] | – |
| Cc1nn(CCOc2cccc(Br)c2)c(C)c1[N+](=O)[O-] | inconclusive [inhibitor, single point] | – |
| COc1ccc(C(=O)O/N=C(\C)c2cnccn2)cc1 | – | inactive: 14.6% |
| CNCCCc1[nH]nc(N)c1C#N | – | inactive: 9.07% |
| O=C1[C@H]2[C@@H](c3ccc(Cl)cc3)N3C(=O)N(c4cccc(Br)c4)C(=O)[C@@]3(Cc3ccc(Cl)cc3)[C@H]2C(=O)N1C1CCCCC1 | inconclusive [inhibitor, full curve, poor fit] | – |
| O/N=C/c1cc(Br)cs1 | inconclusive [inhibitor, full curve, poor fit] | – |
| Cc1c(NS(=O)(=O)c2ccc(Br)s2)c(=O)n(-c2ccccc2)n1C | – | inactive: 0.629% |
| O=S(=O)(c1ccc2oc(=S)[nH]c2c1)N1CCOCC1 | inconclusive [inhibitor, partial curve] | – |
| CCCCCc1nnc(NC(=O)NS(=O)(=O)c2ccc(C)cc2)s1 | – | inactive: 46.1% |
| Cc1nnc(C)c2c(C)n(C(c3ccccc3)c3ccccc3)c(C)c12 | inconclusive [inhibitor, single point] | – |
| Cn1ccsc1=NC(=O)c1ccc(Cl)c([N+](=O)[O-])c1 | – | inactive: 6.48% |
| CN(C)CCOC1c2ccccc2-c2ccccc21 | inconclusive [inhibitor, partial curve, poor fit] | – |
| Cc1ccc(CC(=O)N(Cc2ccccc2)c2ccccn2)cc1 | inconclusive [inhibitor, full curve] | – |
| COC(=O)c1sc(-c2ccc(Cl)cc2)cc1NC(=O)CSCC(=O)O | – | inactive: -3.37% |
| COc1ccc(F)cc1Cn1nc(C(=O)O)c2ccccc2c1=O | – | inactive: 22.5% |
| Cc1nc(C(=O)NCc2ccccc2)sc1C1(C)CC(c2ccccc2)=NO1 (stereo not drawn) | inconclusive [inhibitor, partial curve, poor fit] | – |
| COc1ccccc1N1CCN(C(=O)C2c3ccccc3Oc3ccccc32)CC1 | inconclusive [inhibitor, partial curve, poor fit] | – |
| CCN(CC)S(=O)(=O)c1ccc(S(=O)(=O)Nc2cc3c(cc2C(C)=O)OCO3)cc1 | inconclusive [inhibitor, partial curve, poor fit] | – |
| Cc1ccc2c(CC(=O)NCC3(N4CCOCC4)CCCCC3)coc2c1C | inconclusive [inhibitor, single point] | – |
| Cc1ccc(O)c(Sc2cc(C)ccc2O)c1 | inconclusive [inhibitor, single point] | – |
| CCN(CC(=O)Nc1ccc(Cl)c(S(=O)(=O)N(C)C)c1)Cc1nc2ccccc2c(=O)[nH]1 | inconclusive [inhibitor, partial curve, poor fit] | – |
| Cc1ccc(C2NC(c3ccc(C)cc3)C(C)C(=O)C2C)cc1 (stereo not drawn) | inconclusive [inhibitor, single point] | – |

| SMILES | Potency | activity change, negative = inhibition |
| --- | --- | --- |
| COc1ccc(C2NC3=C(CCC3)C3(C#N)C4(N=C(N)C23C#N)OCCO4)cc1 (stereo not drawn) | inconclusive [inhibitor, single point] | – |
| CCn1c(SCc2ccccc2Cl)nc2nc3c(cc2c1=O)CCCC3 | inconclusive [inhibitor, single point] | – |
| NS(=O)(=O)c1ccc(N=Nc2ccc(O)c3ncccc23)cc1 | active: 2.62 µM | – |
| COn1c(SCc2cccc(Cl)c2)nc2ccccc2c1=O | inconclusive [inhibitor, partial curve] | – |
| CCN(CC)S(=O)(=O)c1ccc2c(c1)nc(SCC(=O)N1CCCCCC1)n2-c1ccc(OC)cc1 | active: 13.1 µM | – |
| Cc1ccc(S(=O)(=O)N2CCCN(c3nc4cc(C)ccc4cc3C#N)CC2)cc1 | inconclusive [inhibitor, single point] | – |
| Cc1cc(C)c(CN2CCCC(CNC(=O)c3ccc(F)cc3)C2)c(-n2cccn2)c1 (stereo not drawn) | inconclusive [inhibitor, single point] | – |
| CC1CCCN(CCCN2C(=O)C3C(C(=O)Nc4cccc(Cl)c4)C4C=CC3(O4)C2C(=O)NC2CCCCC2)C1 (stereo not drawn) | inconclusive [inhibitor, single point] | – |
| Cc1cc(C)nc(NNC2=CC(=[N+]3CCCCC3)CC(C)(C)C2)n1 | inconclusive [inhibitor, single point] | – |
| CCOC(=O)/C(C#N)=C/c1cn(CCC(=O)O)nc1-c1ccc(Br)cc1 | inconclusive [inhibitor, partial curve, poor fit] | – |
| COc1cc(OC)cc(C(=O)N[C@H](C(=O)Nc2cc(F)ccc2C)C(C)C)c1 | inconclusive [inhibitor, partial curve, poor fit] | – |
| Cc1nn(Cc2ccccc2)c(Cl)c1C(=O)Nc1ccc(OC(F)(F)F)cc1 | – | inactive: -10.9% |
| COC(=O)c1ccc(N/C(=N/S(=O)(=O)c2ccccc2)c2ccccc2)cc1 | – | inactive: -91.2% |
| NC(=O)CC[C@@H]1NC(=O)C(Cc2ccc(O)cc2)NC(=O)c2cc([N+](=O)[O-])cc(F)c2NCCC[C@@H](C(N)=O)NC1=O (stereo partly drawn) | – | inactive: 34.8% |
| Cc1ccccc1C1C2=C(Nc3[nH]n(-c4ccccc4)c(=O)c31)c1ccccc1C2=O (stereo not drawn) | inconclusive [inhibitor, single point] | – |
| Nn1c(-c2ccccc2)cc(-c2ccccc2)cc1=O | inconclusive [inhibitor, single point] | – |
| COc1ccc(Cc2nc(-c3ccccn3)no2)cc1 | – | inactive: 93.4% |
| O=C(CCc1nnc(CCCCc2ccccc2)o1)NCCn1cccn1 | – | inactive: 0.686% |
| CC(=O)NCCC1CCN(c2nc3nonc3nc2N(C)Cc2ccccc2)CC1 | inconclusive [inhibitor, partial curve] | – |
| COc1ccc(OC)c(N2Cc3ccccc3C2)c1 | active: 5.86 µM | – |
| Cc1cccc(Cn2nnc3ccccc32)c1O | inconclusive [inhibitor, partial curve] | – |
